From paper PMC4336329 (PLoS ONE, 2015)
The campaign covered roughly 310,000 compounds. About 14,000 (4.5%) showed an effect of 50% or more. The effect is printed as a negative number. The list shows a part of the results.

Biological target: human ether-à-go-go-related gene (hERG) potassium channel (human, UniProt Q12809)
Experiment: primary screen, population patch clamp on CHO cells stably expressing hERG
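Note: peak tail current of the secondary pulse compared with the same well before compound.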

human ether-à-go-go-related gene (hERG) potassium channel, sequence (Q12809 whole entry, looked up): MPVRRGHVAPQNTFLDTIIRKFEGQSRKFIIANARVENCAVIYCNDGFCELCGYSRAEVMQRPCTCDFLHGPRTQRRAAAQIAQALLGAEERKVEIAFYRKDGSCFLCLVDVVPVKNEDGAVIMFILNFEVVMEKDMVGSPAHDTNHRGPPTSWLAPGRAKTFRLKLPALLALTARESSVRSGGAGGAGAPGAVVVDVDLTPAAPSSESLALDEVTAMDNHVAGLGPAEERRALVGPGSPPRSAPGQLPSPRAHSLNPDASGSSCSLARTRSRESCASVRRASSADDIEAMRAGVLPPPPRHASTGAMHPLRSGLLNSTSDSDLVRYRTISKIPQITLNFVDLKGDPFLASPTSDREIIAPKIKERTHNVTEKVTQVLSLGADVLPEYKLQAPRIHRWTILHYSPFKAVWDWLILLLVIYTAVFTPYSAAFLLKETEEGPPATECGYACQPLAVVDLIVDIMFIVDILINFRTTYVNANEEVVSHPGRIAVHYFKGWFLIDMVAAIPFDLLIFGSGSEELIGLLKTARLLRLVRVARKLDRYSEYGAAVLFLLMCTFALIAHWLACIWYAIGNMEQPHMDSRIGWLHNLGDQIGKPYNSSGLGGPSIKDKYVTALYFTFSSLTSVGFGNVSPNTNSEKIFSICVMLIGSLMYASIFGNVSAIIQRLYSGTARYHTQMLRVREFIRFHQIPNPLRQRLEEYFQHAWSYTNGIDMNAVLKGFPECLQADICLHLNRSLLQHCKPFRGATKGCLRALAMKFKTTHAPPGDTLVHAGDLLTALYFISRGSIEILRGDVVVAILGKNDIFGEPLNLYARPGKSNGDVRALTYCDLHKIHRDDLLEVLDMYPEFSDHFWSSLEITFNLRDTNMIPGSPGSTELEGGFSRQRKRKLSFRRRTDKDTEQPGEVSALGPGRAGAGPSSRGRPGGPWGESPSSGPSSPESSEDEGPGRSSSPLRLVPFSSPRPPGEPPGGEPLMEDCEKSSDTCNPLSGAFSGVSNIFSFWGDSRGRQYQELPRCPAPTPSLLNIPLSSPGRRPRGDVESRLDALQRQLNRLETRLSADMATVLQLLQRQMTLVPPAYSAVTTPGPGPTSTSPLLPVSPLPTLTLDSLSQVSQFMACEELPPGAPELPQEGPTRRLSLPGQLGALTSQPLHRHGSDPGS

Structure (SMILES) | hERG current change (%, negative = inhibition) at 10uM
Cc1nccn1CCCN1C(=O)CNC1=S | 1.54%
CCCCOc1ccc(C(=O)NCC(=O)NCC(c2ccc(OC)cc2)N2CCOCC2)cc1 (stereo not shown) | -14.1%
O=C(Cn1nnc(N2CCCCC2)n1)c1ccc(Cl)c(Cl)c1 | 8.09%
O=S(=O)(c1ccccc1)N1CCC(O)(CSc2ccccc2)CC1 | 15.6%
O=C(c1ccccc1Oc1ccccc1)N1CCN(c2ccccc2F)CC1 | -26%
COc1ccc(-n2cnnc2SCC(=O)c2cc(C)n(Cc3cccs3)c2C)cc1 | -73.5%
CCN1CCN(S(=O)(=O)c2cc(C)c(OC)cc2C)CC1 | 5.31%
O=C(O)CC/C(=C\c1ccc(N2CCCC2)c([N+](=O)[O-])c1)c1nc2ccccc2s1 | 25.1%
Cc1onc(-c2c(F)cccc2Cl)c1C(=O)NCCO | 2.87%
Cc1ccc2c(c1)N(CC(=O)N1CCN(c3nc4ccccc4s3)CC1)C(=O)C(C)O2 (stereo not shown) | -54.5%
COC(=O)C1=C(C)N(C)C(=O)NC1c1cc(Cl)cc(Cl)c1OC (stereo not shown) | -5.7%
COc1cc(NS(=O)(=O)c2ccc(NC(=S)NC(=O)c3sc4ccccc4c3Cl)cc2)nc(OC)n1 | 9.83%
C=C(C)[C@@H]1[C@H]2OC(=O)[C@@H]1[C@]1(O)C[C@H]3O[C@]34C(=O)O[C@H]2[C@]14C.CC(C)(O)[C@@H]1[C@H]2OC(=O)[C@@H]1[C@]1(O)C[C@H]3O[C@]34C(=O)O[C@H]2[C@]14C | -3.34%
CCCn1nnc(NC(=O)c2cccnc2Cl)n1 | 12.2%
COCCN1CN=C(Nc2nc3ccccc3o2)NC1 | 13.5%
COc1c2c(nc3ccccc13)OC(C(C)(O)COC(C)=O)C2 (stereo not shown) | -12.7%
CC(=O)O.N=c1ccn2c(n1)OC1C(O)C(CO)OC12 (stereo not shown) | 15%
CCOC(CNC(=O)c1ccc(N2CCc3ccccc32)c([N+](=O)[O-])c1)OCC | -27.8%
O=C(O)c1cc(N2CCOCC2)nc2ccccc12 | 17.4%
COc1ccc(/C=N\Nc2ccc([N+](=O)[O-])cc2[N+](=O)[O-])c(C(=O)O)c1OC | -2.9%
CCCn1ncc(CN2CCC(N3CCC(C(=O)N4CCOCC4)CC3)CC2)c1C | 14.4%
COc1ccc(C(=O)OCC(=O)Nc2cc(C)on2)cc1S(=O)(=O)N1CCOCC1 | 3.65%

Structure (SMILES) | hERG current change (%, negative = inhibition) at 10uM
Cc1csc(SC(C)C(=O)Nc2ccc3c(c2)OCCO3)n1 (stereo not shown) | 6.25%
NC(=O)C1=C[C@H](c2coc3ccccc3c2=O)C[C@H](OCc2ccc(CO)cc2)O1 | -28%
CCOC(=O)c1cc(C#N)c(N2CCN(C(=O)c3cccc(C(F)(F)F)c3)CC2)nc1C(F)(F)F | -0.761%
Cc1cccc(CNC(=O)Cn2ccc3cc(S(=O)(=O)N4CCCCCC4)ccc32)c1 | 2.57%
Cc1ccc(NC(=O)CS(=O)(=O)c2cn(CC(=O)N3CCOCC3)c3ccccc23)cc1 | -0.0981%
O=C(COc1ccc2c(c1)oc(=O)c1ccccc12)N[C@@H](Cc1c[nH]c2ccccc12)C(=O)O | 14.7%
CCCC(=O)N(CCc1ccc(OC)cc1)Cc1nc2ccccc2c(=O)[nH]1 | -8.61%
CCOc1ccc(Cl)cc1Nc1nc(NCCO)nc(N2CCCC2)n1 | -2.56%
CCOC(=O)COc1ccc(C(=O)NC2CCCCC2)cc1 | -1.66%
c1coc(-c2nnc(-c3ccco3)nn2)c1 | 13.6%
COc1ccc(CNCc2cccc(Oc3ccccc3)c2)cc1 | -43.5%
Cn1c(SCC(=O)N2CCOCC2)nnc1-c1cccc(NC(=O)c2ccccc2)c1 | 23.8%
Cc1ccccc1SCc1noc(C(=O)NCC2CCCO2)c1C(=O)O (stereo not shown) | 5.23%
Cc1cc(F)ccc1S(=O)(=O)N1CCCOC1CNC(=O)C(=O)NCC(C)C (stereo not shown) | -6.26%
O=P(/C(=N/O)Sc1ccccc1)(N1CCOCC1)N1CCOCC1 | -26.8%
COc1ccc(-n2nc(C(=O)NCC(=O)NCCCN3CCOCC3)c3ccccc3c2=O)cc1OC | 17.7%
CCOC(=O)c1c(NC(=O)CSc2nnc(C)c(=O)[nH]2)sc2c1CCCC2 | 7.54%
C[C@@]12C(=O)N(c3cccc(Br)c3)C(=O)N1[C@H](c1ccc(Cl)cc1)[C@@H]1C(=O)N(C3CCCCC3)C(=O)[C@@H]12 | 4.38%
Cc1ccc(C(NC(N)=O)c2ccccc2)cc1 (stereo not shown) | 8.71%
COc1cccc2c(N/N=C/c3ccc(O)c(O)c3)cc(C)nc12 | 18.9%
CCN(Cc1ccccc1)C(=O)COc1ccccc1 | 9.21%
Cc1ccc(NC(=O)/C(C#N)=N/Nc2ccc(C(=O)O)cc2)c(C)c1 | 1.82%

Structure (SMILES) | hERG current change (%, negative = inhibition) at 10uM
CCOc1ccc(CN(C)C(=O)c2cc3ccccc3o2)cc1OC | -4%
Cc1cccc(CCNC(=O)Cn2ncc3c([nH]c4ccccc43)c2=O)c1 | 14.2%
COc1ccc(COc2cc(-c3cccc(OC)c3)nc3ccc(NC(=O)c4ccc(C)cc4)cc23)cc1 | -2.81%
O=C(Nc1ccc(Cl)cc1)NC1CCCC1Cc1ccco1 (stereo not shown) | -15.3%
Cc1cccc(NC(=O)CCC(=O)Nc2nnc(C3CCCCC3)s2)c1 | 20.8%
COc1ccc(N(Cc2ccccc2)S(=O)(=O)c2cc(C(=O)O)ccc2Cl)cc1 | 5.3%
O=c1c2ccccc2nc(SCc2ccccc2)n1Cc1ccco1 | 1.3%
O=C(Nc1ccccn1)c1cccnc1 | -7.84%
CN(C)CCN(C(=O)CN1C(=O)c2ccccc2C1=O)c1nc2cc3c(cc2s1)OCO3.Cl | -57%
COc1ccccc1NC(=O)NCc1ccc(C)n1C | 12.8%
CC(C)N(C(=O)CSc1nc2ccccc2n1-c1ccccc1)C(C)C | 3.18%
COc1ccc(OC)c(NC(=O)CSc2ccc3nnc(-c4cccnc4)n3n2)c1 | -61.1%
O=C(OCc1nnc(-c2ccccc2)o1)c1cccnc1Cl | 8.07%
CN(C)C(=O)c1cn(-c2ccccc2)nc1-c1cc2ccccc2oc1=O | -33.4%
C/C(N)=C(/C#N)C(=O)COC(=O)[C@@H](NC(=O)c1ccccc1Cl)C(C)C | 4.16%
O=C1NC(=S)N(C(=O)c2ccc(F)cc2)/C1=C/c1cccnc1 | 4.79%
O=C(c1ccc(F)cc1)c1c[nH]c(C(=O)NCc2cccnc2)c1 | 2.97%
COc1ccc(NS(=O)(=O)c2cn(C)c(=O)n(C)c2=O)c(OC)c1 | -0.648%
CCOC(=O)N1CCN(c2nc(-c3ccccc3)c3cc(C)ccc3n2)CC1 | -8.98%
Cc1ccccc1-c1noc(C23CC4CC(CC(C4)C2)C3)n1 | 14.7%
O=C(CSc1ccc2nnc(CCNC(=O)c3ccccc3)n2n1)NCc1ccc(F)cc1 | 2.34%
O=C(Oc1coc(CSc2ncccn2)cc1=O)c1ccco1 | 3.46%

Structure (SMILES) | hERG current change (%, negative = inhibition) at 10uM
COc1ccc2c(c1OC)C(=O)N(c1ccccn1)C2 | -3.1%
Cc1cccn2c(=O)c3cc(C(=O)NCCc4ccccc4)c(=N)n(CC4CCCO4)c3nc12 (stereo not shown) | -82.3%
COc1ccc(C(C)C)cc1S(=O)(=O)N1CCN(C)CC1 | 9.86%
CC(OC(=O)c1cnccn1)C(=O)Nc1nc(-c2cccc([N+](=O)[O-])c2)cs1 (stereo not shown) | -35%
Cc1cc(=O)n2[nH]c(C(F)(F)F)c(-c3ccccc3)c2n1 | 3.6%
COc1ccc(CCC(=O)OCC(=O)Nc2ccc3[nH]c(=O)[nH]c3c2)cc1 | 2.2%
CC(=O)Nc1nnc(Cc2c[nH]c3ccccc23)s1 | 24.7%
CCn1nc(C(=O)OCC(=O)c2cc(C)n(Cc3cccs3)c2C)c2ccccc2c1=O | 7.14%
CCn1c(SCC(=O)N(C)CCC#N)nc2cc(S(=O)(=O)N3CCOCC3)ccc21 | 14.1%
Cc1ccccc1C(OCCN(C)C)C1CCCCC1.O=C(O)C(=O)O (stereo not shown) | -16.3%
COc1ccc(C(CNC(=O)CCC(=O)c2ccc(C)s2)N2CCOCC2)cc1 (stereo not shown) | -6.59%
O=C(Nc1ccc(F)cc1F)c1ccc(S(=O)(=O)N2CCCCC2)cc1 | 1.1%
COc1ccc(SN=C2C(C)=CC(=O)C=C2C)cc1 | 11.6%
Cc1ccc(NC(=O)Cc2ccsc2)cc1Cl | 11.7%
CC(C)(CO)N=Cc1c(O)[nH]c2ccccc12 | -6.21%
O=C(CN1CCN(C(=O)N2CCOCC2)CC1)Nc1ccc(Br)cc1 | -72.5%
O=S(=O)(c1ccc(Br)cc1)N1CCCc2ccccc21 | 2.51%
COC(=O)c1cc(NS(=O)(=O)c2ccc(C)c3ccccc23)ccc1N1CCOCC1 | 0.538%
NNC(=O)c1sc2cc(C(F)(F)F)cnc2c1-c1cccs1 | 7.73%
